# Results: the supplement of paper PMC8728848
# The list shows a part of the results.
# B1: FliC (Pseudomonas aeruginosa), P72151 (protein)
# chain: MALTVNTNIASLNTQRNLNASSNDLNTSLQRLTTGYRINSAKDDAAGLQISNRLSNQISGLNVATRNANDGISLAQTAEGALQQSTNILQRIRDLALQSANGSNSDADRAALQKEVAAQQAELTRISDTTTFGGRKLLDGSFGTTSFQVGSNAYETIDISLQNASASAIGSYQVGSNGAGTVASVAGTATASGIASGTVNLVGGGQVKNIAIAAGDSAKAIAEKMDGAIPNLSARARTVFTADVSGVTGGSLNFDVTVGSNTVSLAGVTSTQDLADQLNSNSSKLGITASINDKGVLTITSATGENVKFGAQTGTATAGQVAVKVQGSDGKFEAAAKNVVAAGTAATTTIVTGYVQLNSPTAYSVSGTGTQASQVFGNASAAQKSSVASVDISTADGAQNAIAVVDNALAAIDAQRADLGAVQNRFKNTIDNLTNISENATNARSRIKDTDFAAETAALSKNQVLQQAGTAILAQANQLPQAVLSLLR
# Experiments:
# Experiment in all cases: glycan array binding signal (z-score within array); higher = stronger binding
# Conditions in all cases: glycan notation: IUPAC condensed, linker removed
# [1] = biological target: Gal(a1-3)[Gal(a1-4)]Gal(b1-4)GlcNAc
# Procedure, shortened: (§1)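 Arrays were curated from the Consortium for Functional Glycomics database, 3228 in total, and kept only where the protein sequence was available. Binding is expressed as a within-array Z-score. This score was averaged across arrays of the same protein sequence at different concentrations or buffers and across linkers, and negative values can be read as non-binding.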
# [2] = biological target: Gal(a1-4)Gal(b1-3)GlcNAc(b1-2)Man(a1-3)[Gal(a1-4)Gal(b1-3)GlcNAc(b1-2)Man(a1-6)]Man(b1-4)GlcNAc(b1-4)GlcNAc
# Procedure, shortened: as §1
# Gal(a1-4)Gal(b1-4)Glc = biological target: Gal(a1-4)Gal(b1-4)Glc
# Procedure, shortened: as §1
# Gal(a1-4)Gal(b1-4)GlcNAc = biological target: Gal(a1-4)Gal(b1-4)GlcNAc
# Procedure, shortened: as §1
# [3] = biological target: Gal(a1-4)Gal(b1-4)GlcNAc(b1-2)Man(a1-3)[Gal(a1-4)Gal(b1-4)GlcNAc(b1-2)Man(a1-6)]Man(b1-4)GlcNAc(b1-4)GlcNAc
# Procedure, shortened: as §1
# [4] = biological target: Gal(a1-4)Gal(b1-4)GlcNAc(b1-3)Gal(b1-4)Glc
# Procedure, shortened: as §1
# Gal(a1-4)GlcNAc = biological target: Gal(a1-4)GlcNAc
# Procedure, shortened: as §1
# Gal(a1-6)Glc = biological target: Gal(a1-6)Glc
# Procedure, shortened: as §1
# Gal(b1-2)Gal = biological target: Gal(b1-2)Gal
# Procedure, shortened: as §1
# Gal(b1-3)Gal = biological target: Gal(b1-3)Gal
# Procedure, shortened: as §1
# Gal(b1-3)Gal(b1-4)GlcNAc = biological target: Gal(b1-3)Gal(b1-4)GlcNAc
# Procedure, shortened: as §1
# Gal(b1-3)GalNAc = biological target: Gal(b1-3)GalNAc
# Procedure, shortened: as §1
# [5] = biological target: Gal(b1-3)GalNAc(a1-3)[Fuc(a1-2)]Gal(b1-4)Glc
# Procedure, shortened: as §1
# [6] = biological target: Gal(b1-3)GalNAc(a1-3)[Fuc(a1-2)]Gal(b1-4)GlcNAc
# Procedure, shortened: as §1
# Gal(b1-3)GalNAc(b1-3)Gal = biological target: Gal(b1-3)GalNAc(b1-3)Gal
# Procedure, shortened: as §1
# [7] = biological target: Gal(b1-3)GalNAc(b1-3)Gal(a1-4)Gal(b1-4)Glc
# Procedure, shortened: as §1
# [8] = biological target: Gal(b1-3)GalNAc(b1-4)Gal(b1-4)Glc
# Procedure, shortened: as §1
# [9] = biological target: Gal(b1-3)GalNAc(b1-4)[Neu5Ac(a2-3)]Gal(b1-4)Glc
# Procedure, shortened: as §1
# Gal(b1-3)GlcNAc = biological target: Gal(b1-3)GlcNAc
# Procedure, shortened: as §1
# [10] = biological target: Gal(b1-3)GlcNAc(a1-3)Gal(b1-4)GlcNAc
# Procedure, shortened: as §1
# [11] = biological target: Gal(b1-3)GlcNAc(a1-6)Gal(b1-4)GlcNAc
# Procedure, shortened: as §1
# Gal(b1-3)GlcNAc(b1-2)Man = biological target: Gal(b1-3)GlcNAc(b1-2)Man
# Procedure, shortened: as §1
# [12] = biological target: Gal(b1-3)GlcNAc(b1-2)Man(a1-3)[Gal(b1-3)GlcNAc(b1-2)Man(a1-6)]Man(b1-4)GlcNAc(b1-4)GlcNAc
# Procedure, shortened: as §1
# [13] = biological target: Gal(b1-3)GlcNAc(b1-2)Man(a1-3)[Gal(b1-3)GlcNAc(b1-2)Man(a1-6)]Man(b1-4)GlcNAc(b1-4)[Fuc(a1-6)]GlcNAc
# Procedure, shortened: as §1
# [14] = biological target: Gal(b1-3)GlcNAc(b1-2)Man(a1-3)[GlcNAc(b1-4)][Gal(b1-3)GlcNAc(b1-2)Man(a1-6)]Man(b1-4)GlcNAc(b1-4)GlcNAc
# Procedure, shortened: as §1
# [15] = biological target: Gal(b1-3)GlcNAc(b1-2)[Gal(b1-3)GlcNAc(b1-6)]Man(a1-6)[Gal(b1-3)GlcNAc(b1-2)Man(a1-3)]Man(b1-4)GlcNAc(b1-4)GlcNAc
# Procedure, shortened: as §1
# [16] = biological target: Gal(b1-3)GlcNAc(b1-3)Gal(b1-3)GlcNAc
# Procedure, shortened: as §1
# [17] = biological target: Gal(b1-3)GlcNAc(b1-3)Gal(b1-4)Glc
# Procedure, shortened: as §1
# [18] = biological target: Gal(b1-3)GlcNAc(b1-3)Gal(b1-4)GlcNAc
# Procedure, shortened: as §1
# [19] = biological target: Gal(b1-3)GlcNAc(b1-3)Gal(b1-4)GlcNAc(b1-2)Man(a1-3)[Gal(b1-3)GlcNAc(b1-3)Gal(b1-4)GlcNAc(b1-2)Man(a1-6)]Man(b1-4)GlcNAc(b1-4)GlcNAc
# Procedure, shortened: as §1
# [20] = biological target: Gal(b1-3)GlcNAc(b1-3)Gal(b1-4)GlcNAc(b1-2)[Gal(b1-3)GlcNAc(b1-3)Gal(b1-4)GlcNAc(b1-6)]Man(a1-6)[Gal(b1-3)GlcNAc(b1-3)Gal(b1-4)GlcNAc(b1-2)Man(a1-3)]Man(b1-4)GlcNAc(b1-4)[Fuc(a1-6)]GlcNAc
# Procedure, shortened: as §1
# [21] = biological target: Gal(b1-3)GlcNAc(b1-3)Gal(b1-4)GlcNAc(b1-3)Gal(b1-4)GlcNAc(b1-2)[Gal(b1-3)GlcNAc(b1-3)Gal(b1-4)GlcNAc(b1-3)Gal(b1-4)GlcNAc(b1-6)]Man(a1-6)[Gal(b1-3)GlcNAc(b1-3)Gal(b1-4)GlcNAc(b1-3)Gal(b1-4)GlcNAc(b1-2)Man(a1-3)]Man(b1-4)GlcNAc(b1-4)[Fuc(a1-6)]GlcNAc
# Procedure, shortened: as §1
# [22] = biological target: Gal(b1-3)GlcNAc(b1-3)Gal(b1-4)GlcNAc(b1-6)[Gal(b1-3)GlcNAc(b1-3)]Gal(b1-4)Glc
# Procedure, shortened: as §1
# [23] = biological target: Gal(b1-3)GlcNAc(b1-3)Gal(b1-4)[Fuc(a1-3)]GlcNAc(b1-6)[Gal(b1-3)GlcNAc(b1-3)]Gal(b1-4)Glc
# Procedure, shortened: as §1
# [24] = biological target: Gal(b1-3)GlcNAc(b1-3)GalNAc
# Procedure, shortened: as §1
# [25] = biological target: Gal(b1-3)GlcNAc(b1-6)Gal(b1-4)GlcNAc
# Procedure, shortened: as §1
# [26] = biological target: Gal(b1-3)GlcNAc(b1-6)GalNAc
# Procedure, shortened: as §1
# [27] = biological target: Gal(b1-3)GlcNAc(b1-6)[Gal(b1-3)]GalNAc
# Procedure, shortened: as §1
binder,measurement,setting,value
B1,glycan array binding signal (z-score),[1],-0.061
same,glycan array binding signal (z-score),[2],-0.081
same,glycan array binding signal (z-score),Gal(a1-4)Gal(b1-4)Glc,-0.183
same,glycan array binding signal (z-score),Gal(a1-4)Gal(b1-4)GlcNAc,0.061
same,glycan array binding signal (z-score),[3],-0.165
same,glycan array binding signal (z-score),[4],-0.119
same,glycan array binding signal (z-score),Gal(a1-4)GlcNAc,1.07
same,glycan array binding signal (z-score),Gal(a1-6)Glc,-0.258
same,glycan array binding signal (z-score),Gal(b1-2)Gal,0.927
same,glycan array binding signal (z-score),Gal(b1-3)Gal,-0.208
same,glycan array binding signal (z-score),Gal(b1-3)Gal(b1-4)GlcNAc,-0.198
same,glycan array binding signal (z-score),Gal(b1-3)GalNAc,0.004
same,glycan array binding signal (z-score),[5],-0.091
same,glycan array binding signal (z-score),[6],-0.136
same,glycan array binding signal (z-score),Gal(b1-3)GalNAc(b1-3)Gal,-0.232
same,glycan array binding signal (z-score),[7],-0.11
same,glycan array binding signal (z-score),[8],-0.162
same,glycan array binding signal (z-score),[9],0.001
same,glycan array binding signal (z-score),Gal(b1-3)GlcNAc,-0.179
same,glycan array binding signal (z-score),[10],-0.119
same,glycan array binding signal (z-score),[11],-0.215
same,glycan array binding signal (z-score),Gal(b1-3)GlcNAc(b1-2)Man,-0.213
same,glycan array binding signal (z-score),[12],-0.121
same,glycan array binding signal (z-score),[13],-0.117
same,glycan array binding signal (z-score),[14],-0.213
same,glycan array binding signal (z-score),[15],-0.192
same,glycan array binding signal (z-score),[16],-0.235
same,glycan array binding signal (z-score),[17],-0.203
same,glycan array binding signal (z-score),[18],-0.2
same,glycan array binding signal (z-score),[19],-0.073
same,glycan array binding signal (z-score),[20],0.103
same,glycan array binding signal (z-score),[21],2.32
same,glycan array binding signal (z-score),[22],-0.165
same,glycan array binding signal (z-score),[23],-0.094
same,glycan array binding signal (z-score),[24],-0.138
same,glycan array binding signal (z-score),[25],-0.214
same,glycan array binding signal (z-score),[26],-0.139
same,glycan array binding signal (z-score),[27],0.427
